From PubChem BioAssay (NCATS)
Values joined by “and” are separate entries in the source; they are usually repeats but may differ in a detail not shown here. Equal values may be shown once. Inconclusive results, whose numbers are uncertain, are shown with a selection of clear calls. Potencies of inconclusive entries are left out as doubtful fits. Active and inactive are the calls of the source. The call rests on the fitted dose curve; in most records, active means well fitted inhibition curve with a large enough effect; inconclusive means small, poorly fitted or top-dose-only effect; inactive means no such curve, though single readings can be large or run the other way.

Each compound was assayed against Glutaminase kidney isoform, mitochondrial (Homo sapiens) (UniProt O94925) (assay: qHTS for Inhibitors of Glutaminase (GLS): LOPAC Validation (AID 624146; further: nearly all actives have a fitted effect of over 60% in size;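 on activity change, negative = inhibition: glutamate product detected by oxidase and peroxidase coupled Amplex red fluorescence gain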)). Settings: glutaminase enzyme activity inhibition; series mostly up to 46.1 µM; activity change, negative = inhibition: at the top concentration.
UniProt O94925, sequence (O94925 whole entry, looked up, canonical isoform): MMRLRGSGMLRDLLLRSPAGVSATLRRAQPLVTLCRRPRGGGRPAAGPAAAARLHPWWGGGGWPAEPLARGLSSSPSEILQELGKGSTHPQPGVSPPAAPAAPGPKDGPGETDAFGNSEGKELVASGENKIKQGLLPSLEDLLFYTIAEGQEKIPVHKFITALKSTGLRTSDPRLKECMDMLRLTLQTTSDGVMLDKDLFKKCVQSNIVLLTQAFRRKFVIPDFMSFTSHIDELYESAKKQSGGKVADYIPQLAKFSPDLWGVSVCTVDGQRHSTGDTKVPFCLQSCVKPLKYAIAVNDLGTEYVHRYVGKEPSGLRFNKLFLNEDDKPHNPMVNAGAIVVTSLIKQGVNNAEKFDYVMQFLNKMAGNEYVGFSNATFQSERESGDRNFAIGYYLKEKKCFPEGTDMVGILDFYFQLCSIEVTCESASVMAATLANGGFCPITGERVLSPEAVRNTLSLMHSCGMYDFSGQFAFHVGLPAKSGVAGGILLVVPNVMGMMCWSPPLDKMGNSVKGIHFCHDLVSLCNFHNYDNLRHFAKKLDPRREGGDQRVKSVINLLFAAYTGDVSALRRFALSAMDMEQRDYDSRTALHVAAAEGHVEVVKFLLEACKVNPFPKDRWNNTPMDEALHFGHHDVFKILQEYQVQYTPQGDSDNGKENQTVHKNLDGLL
Source text: Glutaminase (GLS) catalyzes the hydrolysis of glutamine into glutamate and ammonia. It plays a critical role in glutaminolysis, which is an important energy source for proliferating cells. It was shown that c-Myc, an oncogenic transcription factor known to regulate microRNAs and to stimulate cell proliferation, increases glutamine metabolism by stimulating the expression of GLS via direct suppression of miR23a and miR23b.
GLS is also thought to play a pathogenic role on HAD using a human HIV-1 infected macrophage system. […] GLS inhibition limits glutamate release and provides neuroprotection against HIV-1 infected macrophages.
The overall goal of this project is to identify small molecule inhibitors of GLS through quantitative high throughput screening (qHTS) of the MLSMR. A validated potent and selective inhibitor can be used as a tool molecule to further study the pharmacology of its target as well as explore its potential therapeutic application in cancer and inflammatory neurological disorders, such as HIV1-associated dementia (HAD) and multiple sclerosis.
NIH Chemical Genomics Center [NCGC]
NIH Molecular Libraries Probe Centers Network [MLPCN]
Assay Submitter (PI): Barbara S. Slusher, Johns Hopkins University
Three 3 uL of hKGA is dispensed into black well 1536-well plates in 45 mM KH2PO4 (pH 8.2), 0.02% Tween-20. Then 23 nL of compounds are added through pin tool transfer. To this, 1 uL of 1mM L-Glutamine and 1 uL of a solution of L-Glutamateoxidase, HRP, Amplex red are added. Plate is centrifuged for 25 sec before an initial fluorescence read is obtained on the ViewLux, after 30 min of RT incubation, the final read is taken on the ViewLux.
On the % scale 0 is the no-effect control and ±100 the full control effect; potency means the concentration at half of the fitted maximal effect; tags describe the fitted curve by direction and shape.

Row | SMILES | activity change, negative = inhibition | Potency
1 | NC(CP(=O)(O)O)C(=O)O (stereo not given) | inactive: -11.5% | 
2 | CCCN1CCc2cccc3c2[C@H]1Cc1ccc(O)c(O)c1-3 |  | active: 1.41 µM
3 | C[C@]12CCC3C(CC[C@H]4C[C@H](O)CC[C@]34C)C1CC[C@@H]2C(=O)CO (stereo not given in full) | inactive: -20.5% | 
4 | C=CCN1CCC23c4c5ccc(O)c4O[C@H]2C(=O)CC[C@@]3(O)C1C5 (stereo not given in full) |  | inconclusive [inhibitor, full curve]
5 | c1ccc2sc(C3(N4CCCCC4)CCCCC3)cc2c1 | inactive: -13.1% | 
6 | C=CCN(C1=NCCN1)c1c(Cl)cccc1Cl | inactive: -16.5% | 
7 | CC(N)Cc1c[nH]c2ccc(O)cc12 (stereo not given) |  | active: 0.794 µM
8 | NC1CCc2cc(O)c(O)cc2C1 (stereo not given) |  | inconclusive [inhibitor, full curve]
9 | CC(C)[C@@]1(NC(=O)[C@@H]2C[C@@H]3c4cccc5[nH]cc(c45)C[C@H]3N(C)C2)O[C@@]2(O)[C@@H]3CCCN3C(=O)[C@H](Cc3ccccc3)N2C1=O |  | inconclusive [inhibitor, partial curve, poor fit]
10 | C=CCN1CC[C@]23c4c5ccc(O)c4O[C@H]2/C(=N/NC(=O)c2ccccc2)CC[C@@]3(O)[C@H]1C5 |  | active: 14.1 µM
11 | CNCCc1c[nH]c2ccc(O)cc12 |  | inconclusive [inhibitor, full curve]
12 | Cc1[nH]c2ccc(O)cc2c1CCN |  | inconclusive [inhibitor, full curve, poor fit]
13 | CC12CCC3C(CCC4=C(O)C(=O)CCC43C)C1CCC2=O (stereo not given) |  | inconclusive [inhibitor, partial curve, poor fit]
14 | O=[N+]([O-])/C=C/c1ccc2c(c1)OCO2 |  | active: 12.6 µM
15 | C[C@H]1C2Cc3ccc(O)cc3[C@]1(C)CCN2CC1CC1 |  | inconclusive [inhibitor, full curve]
16 | N[C@@]1(C(=O)O)CC[C@@H](C(=O)O)C1 | inactive: -7.43% | 
17 | Cc1c2ccncc2c(C)c2c1[nH]c1ccccc12 |  | inconclusive [inhibitor, single point]
18 | CCCN1CC[C@@H]2c3cc(O)ccc3CC[C@@H]21 |  | inconclusive [inhibitor, partial curve]
19 | CCCN(CCC)[C@@H]1CCc2cccc(O)c2C1 |  | inconclusive [inhibitor, partial curve]
20 | COc1ccc2[nH]cc(CCN)c2c1 |  | inconclusive [inhibitor, partial curve, poor fit]

Row | SMILES | activity change, negative = inhibition | Potency
21 | CN1CCc2cc(O)cc3c2[C@H]1Cc1ccc(O)c(O)c1-3 |  | active: 2.24 µM
22 | C[C@H](N)CN1CCc2ccc(Br)cc21 |  | inconclusive [inhibitor, full curve, poor fit]
23 | CC(=O)c1c(O)c(C)c(O)c(Cc2c(O)c3c(c(C(=O)/C=C/c4ccccc4)c2O)OC(C)(C)C=C3)c1O |  | inconclusive [inhibitor, partial curve, poor fit]
24 | N[C@@H](Cn1ccc(=O)[nH]c1=O)C(=O)O | inactive: -10.3% | 
25 | NC(N)=NOCCC(N)C(=O)O (stereo not given) | inactive: -17.9% | 
26 | COc1ccc2[nH]c3c(c2c1)CCNC3 |  | inconclusive [inhibitor, partial curve, poor fit]
27 | Oc1ccc2c3c1O[C@H]1c4[nH]c5ccccc5c4C[C@@]4(O)C(C2)N(CC2CC2)CCC314 (stereo not given in full) |  | inconclusive [inhibitor, partial curve, poor fit]
28 | O=S1(=O)N(CCN2CC=C(c3c[nH]c4cc(F)ccc34)CC2)c2cccc3c2N1CCC3 |  | inconclusive [inhibitor, partial curve]
29 | COc1ccc2c(c1O)-c1cccc3c1[C@@H](C2)N(C)CC3 |  | active: 3.55 µM
30 | c1ccc2c(N3CCNCC3)cccc2c1 |  | inconclusive [inhibitor, single point]
31 | CCCN(CCC)C1Cc2cc(OC)c(OC)cc2C1 | inactive: -5.85% | 
32 | O=[N+]([O-])c1ccc2nc(N3CCNCC3)ccc2c1 |  | inconclusive [inhibitor, single point]
33 | NC(Cc1ccc(N(CCCl)CCCl)cc1)C(=O)O (stereo not given) |  | inconclusive [inhibitor, partial curve]
34 | CCCCCCCCCCCCCC(=O)O[C@@H]1[C@@H](C)[C@@]2(O)[C@@H](C=C(CO)C[C@@]3(O)C(=O)C(C)=C[C@@H]23)C2C(C)(C)[C@@]21OC(C)=O (stereo not given in full) |  | inconclusive [inhibitor, partial curve]
35 | CCCN(CCC)[C@H]1CCc2c(F)ccc(O)c2C1 |  | inconclusive [inhibitor, partial curve, poor fit]
36 | N[C@@H](CCl)C(=O)O | inactive: -23% | 
37 | C[C@H](N)Cc1cccc(C(F)(F)F)c1 | inactive: -7.29% | 
38 | C[N+]1(C)CCOC(O)(c2ccc(-c3ccc(C4(O)C[N+](C)(C)CCO4)cc3)cc2)C1 (stereo not given) |  | inconclusive [inhibitor, full curve, poor fit]
39 | NNC(=O)c1ccc(O)cc1 |  | inconclusive [inhibitor, full curve]
40 | CCCN1CCO[C@@H]2c3cc(O)ccc3OC[C@H]21 |  | active: 4.47 µM and active: 1.41 µM
